In the supplement of paper PMC8728848:
Some of the results follow.

Tests used:
Assay in all cases: glycan array binding signal (z-score within array); higher = stronger binding
Details in all cases: glycan notation: IUPAC condensed, linker removed
Kdn(a2-3)Gal(b1-3)GlcNAc = target: Kdn(a2-3)Gal(b1-3)GlcNAc
In short: (§1)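 Glycan array data were curated from 3228 arrays in the Consortium for Functional Glycomics database and kept only where the protein sequence was available. Glycan names were converted to IUPAC-condensed notation, and columns mapping to the same glycan were averaged. The binding signal is a within-array Z-score, averaged across arrays of the same protein sequence at different concentrations or buffers and across linkers. Negative Z-scores can be read as non-binding.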

Kdn(a2-3)Gal(b1-4)Glc = target: Kdn(a2-3)Gal(b1-4)Glc
In short: as §1

Kdn(a2-3)Gal(b1-4)GlcNAc = target: Kdn(a2-3)Gal(b1-4)GlcNAc
In short: as §1

[1] = target: Kdn(a2-3)Gal(b1-4)[Fuc(a1-3)]GlcNAc
In short: as §1

Kdn(a2-6)Gal(b1-4)GlcNAc = target: Kdn(a2-6)Gal(b1-4)GlcNAc
In short: as §1

[2] = target: Man(a1-2)Man(a1-2)Man(a1-3)Man
In short: as §1

[3] = target: Man(a1-2)Man(a1-2)Man(a1-6)[Man(a1-3)]Man
In short: as §1

Man(a1-2)Man(a1-3)Man = target: Man(a1-2)Man(a1-3)Man
In short: as §1

[4] = target: Man(a1-2)Man(a1-3)[Man(a1-2)Man(a1-6)]Man
In short: as §1

[5] = target: Man(a1-2)Man(a1-3)[Man(a1-2)Man(a1-6)]Man(a1-6)[Man(a1-2)Man(a1-2)Man(a1-3)]Man
In short: as §1

[6] = target: Man(a1-2)Man(a1-3)[Man(a1-2)Man(a1-6)]Man(a1-6)[Man(a1-2)Man(a1-2)Man(a1-3)]Man(b1-4)GlcNAc(b1-4)GlcNAc
In short: as §1

[7] = target: Man(a1-2)Man(a1-3)[Man(a1-6)]Man(a1-6)[Man(a1-2)Man(a1-3)]Man(b1-4)GlcNAc(b1-4)GlcNAc
In short: as §1

[8] = target: Man(a1-2)Man(a1-6)[Man(a1-3)]Man(a1-6)[Man(a1-2)Man(a1-2)Man(a1-3)]Man
In short: as §1

[9] = target: Man(a1-2)Man(a1-6)[Man(a1-3)]Man(a1-6)[Man(a1-2)Man(a1-2)Man(a1-3)]Man(b1-4)GlcNAc(b1-4)GlcNAc
In short: as §1

Man(a1-3)[Man(a1-6)]Man = target: Man(a1-3)[Man(a1-6)]Man
In short: as §1

[10] = target: Man(a1-3)[Man(a1-6)]Man(a1-6)[Man(a1-2)Man(a1-3)]Man(b1-4)GlcNAc(b1-4)GlcNAc
In short: as §1

[11] = target: Man(a1-3)[Man(a1-6)]Man(a1-6)[Man(a1-3)]Man
In short: as §1

[12] = target: Man(a1-3)[Man(a1-6)]Man(a1-6)[Man(a1-3)]Man(b1-4)GlcNAc(b1-4)GlcNAc
In short: as §1

[13] = target: Man(a1-3)[Man(a1-6)]Man(b1-4)GlcNAc(b1-4)GlcNAc
In short: as §1

[14] = target: Man(a1-3)[Man(a1-6)]Man(b1-4)GlcNAc(b1-4)[Fuc(a1-6)]GlcNAc
In short: as §1

Man(a1-6)Man = target: Man(a1-6)Man
In short: as §1

Man(b1-4)GlcNAc = target: Man(b1-4)GlcNAc
In short: as §1

MurNAc(b1-4)GlcNAc = target: MurNAc(b1-4)GlcNAc
In short: as §1

Neu5Ac(a2-3)Gal = target: Neu5Ac(a2-3)Gal
In short: as §1

[15] = target: Neu5Ac(a2-3)Gal(b1-3)GalNAc
In short: as §1

[16] = target: Neu5Ac(a2-3)Gal(b1-3)GalNAc(b1-3)Gal(a1-4)Gal(b1-4)Glc
In short: as §1

[17] = target: Neu5Ac(a2-3)Gal(b1-3)GalNAc(b1-3)Gal(b1-4)GlcNAc
In short: as §1

[18] = target: Neu5Ac(a2-3)Gal(b1-3)GalNAc(b1-4)[Neu5Ac(a2-3)]Gal(b1-4)Glc
In short: as §1

[19] = target: Neu5Ac(a2-3)Gal(b1-3)GalNAc(b1-4)[Neu5Ac(a2-8)Neu5Ac(a2-3)]Gal(b1-4)Glc
In short: as §1

[20] = target: Neu5Ac(a2-3)Gal(b1-3)GalNAc6S
In short: as §1

[21] = target: Neu5Ac(a2-3)Gal(b1-3)GlcNAc
In short: as §1

[22] = target: Neu5Ac(a2-3)Gal(b1-3)GlcNAc(b1-2)Man
In short: as §1

[23] = target: Neu5Ac(a2-3)Gal(b1-3)GlcNAc(b1-2)Man(a1-3)[GlcNAc(b1-4)][Neu5Ac(a2-3)Gal(b1-3)GlcNAc(b1-2)Man(a1-6)]Man(b1-4)GlcNAc(b1-4)GlcNAc
In short: as §1

[24] = target: Neu5Ac(a2-3)Gal(b1-3)GlcNAc(b1-2)Man(a1-3)[Neu5Ac(a2-3)Gal(b1-3)GlcNAc(b1-2)Man(a1-6)]Man(b1-4)GlcNAc(b1-4)GlcNAc
In short: as §1

[25] = target: Neu5Ac(a2-3)Gal(b1-3)GlcNAc(b1-3)Gal(b1-3)GlcNAc
In short: as §1

[26] = target: Neu5Ac(a2-3)Gal(b1-3)GlcNAc(b1-3)Gal(b1-4)GlcNAc
In short: as §1

[27] = target: Neu5Ac(a2-3)Gal(b1-3)GlcNAc(b1-3)GalNAc
In short: as §1

[28] = target: Neu5Ac(a2-3)Gal(b1-3)GlcNAc(b1-4)Gal(b1-4)Glc
In short: as §1

[29] = target: Neu5Ac(a2-3)Gal(b1-3)GlcNAc(b1-6)GalNAc
In short: as §1

[30] = target: Neu5Ac(a2-3)Gal(b1-3)GlcNAc6S
In short: as §1

[31] = target: Neu5Ac(a2-3)Gal(b1-3)[Fuc(a1-4)]GlcNAc
In short: as §1

B1: NPA (Narcissus pseudonarcissus), C0HM45 (protein)
chain: DNILYSGETLSPGEFLNNGRYVFIMQEDCNLVLYDVDKPIWATNTGGLDRRCHLSMQSDGNLVVYSPRNNPIWASNTGGENGNYVCVLQKDRNVVIYGTARWATGTNIH
glycan array binding signal (z-score) (Kdn(a2-3)Gal(b1-3)GlcNAc): -0.164
glycan array binding signal (z-score) (Kdn(a2-3)Gal(b1-4)Glc): -0.136
glycan array binding signal (z-score) (Kdn(a2-3)Gal(b1-4)GlcNAc): -0.151
glycan array binding signal (z-score) [1]: -0.132
glycan array binding signal (z-score) (Kdn(a2-6)Gal(b1-4)GlcNAc): -0.147
glycan array binding signal (z-score) [2]: 0.268
glycan array binding signal (z-score) [3]: 0.568
glycan array binding signal (z-score) (Man(a1-2)Man(a1-3)Man): -0.076
glycan array binding signal (z-score) [4]: 0.288
glycan array binding signal (z-score) [5]: 0.221
glycan array binding signal (z-score) [6]: 0.144
glycan array binding signal (z-score) [7]: 2.38
glycan array binding signal (z-score) [8]: 1.19
glycan array binding signal (z-score) [9]: 1.83
glycan array binding signal (z-score) (Man(a1-3)[Man(a1-6)]Man): 5.21
glycan array binding signal (z-score) [10]: 5.6
glycan array binding signal (z-score) [11]: 2.47
glycan array binding signal (z-score) [12]: 5.37
glycan array binding signal (z-score) [13]: 10.1
glycan array binding signal (z-score) [14]: 5.34
glycan array binding signal (z-score) (Man(a1-6)Man): -0.132
glycan array binding signal (z-score) (Man(b1-4)GlcNAc): -0.151
glycan array binding signal (z-score) (MurNAc(b1-4)GlcNAc): -0.137
glycan array binding signal (z-score) (Neu5Ac(a2-3)Gal): -0.148
glycan array binding signal (z-score) [15]: -0.161
glycan array binding signal (z-score) [16]: -0.152
glycan array binding signal (z-score) [17]: -0.194
glycan array binding signal (z-score) [18]: -0.164
glycan array binding signal (z-score) [19]: -0.134
glycan array binding signal (z-score) [20]: -0.153
glycan array binding signal (z-score) [21]: -0.155
glycan array binding signal (z-score) [22]: -0.122
glycan array binding signal (z-score) [23]: -0.074
glycan array binding signal (z-score) [24]: -0.143
glycan array binding signal (z-score) [25]: -0.15
glycan array binding signal (z-score) [26]: -0.153
glycan array binding signal (z-score) [27]: -0.14
glycan array binding signal (z-score) [28]: -0.113
glycan array binding signal (z-score) [29]: -0.143
glycan array binding signal (z-score) [30]: -0.124
glycan array binding signal (z-score) [31]: -0.16
